# Publication PMC4336329 (PLoS ONE, 2015)
# About 14,000 (4.5%) of roughly 310,000 compounds showed an effect of 50% or more. The effect is printed as a negative number. The list shows a part of the results.
# Biological target: human ether-à-go-go-related gene (hERG) potassium channel (human, UniProt Q12809)
# Assay: primary screen, population patch clamp on CHO cells stably expressing hERG
# 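Also: peak tail current of the secondary pulse compared with the same well before compound.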
# Sequence of human ether-à-go-go-related gene (hERG) potassium channel (Q12809 whole entry, looked up): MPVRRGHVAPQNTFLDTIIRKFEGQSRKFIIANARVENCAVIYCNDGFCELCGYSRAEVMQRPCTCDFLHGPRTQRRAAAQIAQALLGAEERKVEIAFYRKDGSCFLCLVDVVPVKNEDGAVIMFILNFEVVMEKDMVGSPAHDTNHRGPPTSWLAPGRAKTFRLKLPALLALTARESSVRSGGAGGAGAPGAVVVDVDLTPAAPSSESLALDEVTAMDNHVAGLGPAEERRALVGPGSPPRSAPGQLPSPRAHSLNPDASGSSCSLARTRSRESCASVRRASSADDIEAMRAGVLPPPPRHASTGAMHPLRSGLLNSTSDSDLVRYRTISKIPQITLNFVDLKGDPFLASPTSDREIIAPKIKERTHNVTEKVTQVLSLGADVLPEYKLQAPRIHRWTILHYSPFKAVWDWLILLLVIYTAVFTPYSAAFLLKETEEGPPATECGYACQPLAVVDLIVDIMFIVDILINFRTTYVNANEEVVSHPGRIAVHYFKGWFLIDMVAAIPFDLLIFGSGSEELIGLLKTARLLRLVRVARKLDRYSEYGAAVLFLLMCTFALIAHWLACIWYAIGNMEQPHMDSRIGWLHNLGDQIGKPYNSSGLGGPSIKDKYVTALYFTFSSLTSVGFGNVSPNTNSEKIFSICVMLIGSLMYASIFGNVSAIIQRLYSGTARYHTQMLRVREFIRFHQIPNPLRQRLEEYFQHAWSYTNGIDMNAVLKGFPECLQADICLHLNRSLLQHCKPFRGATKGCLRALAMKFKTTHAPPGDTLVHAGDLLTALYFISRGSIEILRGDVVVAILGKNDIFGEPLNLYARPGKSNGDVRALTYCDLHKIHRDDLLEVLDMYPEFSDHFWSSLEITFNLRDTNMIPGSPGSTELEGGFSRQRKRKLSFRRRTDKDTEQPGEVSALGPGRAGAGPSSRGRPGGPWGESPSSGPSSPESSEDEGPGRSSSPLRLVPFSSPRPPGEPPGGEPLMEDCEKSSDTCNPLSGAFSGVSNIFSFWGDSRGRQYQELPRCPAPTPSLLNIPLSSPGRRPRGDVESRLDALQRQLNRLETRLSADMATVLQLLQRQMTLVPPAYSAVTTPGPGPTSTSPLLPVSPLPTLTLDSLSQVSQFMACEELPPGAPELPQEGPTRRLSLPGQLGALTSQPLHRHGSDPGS
row,Structure (SMILES),"hERG current change (%, negative = inhibition) at 10uM [%]"
1,Cc1ccc(CCNC(=O)CCSCc2ccc(Cl)cc2)cc1,8.95
2,C/C(=N\Nc1ccc(Cl)c(C(=O)O)c1)c1cc2ccccc2o1,8.35
3,CCOC(=O)C1CCCN(CCC(=O)Nc2cc(C)cc(C)c2)C1 (stereo not drawn),-58.4
4,Cc1ccc(NS(=O)(=O)c2cccc(C(=O)NCC(c3cccs3)N3CCOCC3)c2)cc1 (stereo not drawn),-14.3
5,O=C(COc1ccccc1)N1CCN(S(=O)(=O)c2cccc([N+](=O)[O-])c2)CC1,-47.3
6,CCC1=NC(c2ccc(OC)cc2)N(O)C1(C)C (stereo not drawn),13.9
7,O=C(COc1ccc(-n2cnnn2)cc1)NCCc1ccc(F)cc1,-51.5
8,C/C=C1/C[C@@H](C)[C@](O)(CO)C(=O)OCC2=CCN3CC[C@@H](OC1=O)[C@@H]23,16.1
9,S=c1[nH]nc(-c2n[nH]c3c2CCC3)n1/N=C/C=C/c1ccccc1,13.8
10,Cc1ccc(S(=O)(=O)N2CCC(Oc3ccc(-n4cnnn4)cc3)CC2)cc1,0.934
11,COc1ccc(Cc2nnc(NC(=O)C(C)C)s2)cc1,11.2
12,CCc1ccc(NC(=O)c2cnn(-c3ccccc3)c2C2CCNCC2)cc1.Cl,-60
13,O=C(CCCNC(=O)/C(=C\c1ccc(F)cc1)NC(=O)c1ccccc1)OCc1ccccc1,-77.1
14,Cc1ccc(Cl)cc1N1CCN(c2cccc[n+]2C)CC1.[I-],-38.4
15,Cc1c(NC2=NC(C)(C)Cc3ccccc32)c(=O)n(-c2ccccc2)n1C,-5.5
16,O=C(Nc1nnc(-c2ccccc2)o1)Nc1ccccc1Cl,8.51
17,COc1cc(/C=C/CN2CCN(Cc3ccc(C)o3)C(CCO)C2)ccc1O (stereo not drawn),-6.62
18,C=CCN1C(=O)C2(c3ccccc31)C1CCCC=C1C(C#N)=C(N)C2(C#N)C#N (stereo not drawn),1.1
19,CCc1ccccc1NC(=O)CNC(=O)CSC(=S)N1CCCC1,-3.17
20,OCCC1CN(Cc2cccn2-c2nccs2)CCN1C1CCCCC1 (stereo not drawn),-37.8
21,Cc1ccccc1CSCC(=O)NNC(=S)NCC1CCCO1 (stereo not drawn),7.94
22,COC(=O)c1ccc(NC(=S)NCCc2ccccc2)cc1,12.9

row,Structure (SMILES),"hERG current change (%, negative = inhibition) at 10uM [%]"
1,CN(C)S(=O)(=O)Nc1ccc2c(c1)Cc1ccccc1-2,6.73
2,CCn1c(SCC(=O)NCC2CCCO2)nc2c(c1=O)SC(C)C2 (stereo not drawn),10.5
3,CN(C)C(CNC(=O)c1cccc(S(=O)(=O)NCc2ccccc2)c1)c1ccco1 (stereo not drawn),-28.2
4,Cc1ccc(S(=O)(=O)n2cnc3cc([N+](=O)[O-])ccc32)cc1C,-19.9
5,CCOc1ccc(NC(=O)CC2C(=O)N(CC)C(=S)N2CCN2CCOCC2)cc1 (stereo not drawn),-5.97
6,Cn1c(SCC(=O)N2CCOCC2)nnc1-c1cccc(NC(=O)c2ccccc2F)c1,12.5
7,Nc1nc(SC2c3cccc4cccc(c34)C2NS(=O)(=O)c2ccccc2)n[nH]1 (stereo not drawn),5.88
8,CCOc1ccc(NC(=O)NNC(=O)c2cccnc2)cc1,8.6
9,COc1ccccc1C(=O)NNC(=O)CCC(=O)NCc1ccccc1,6.36
10,Cc1ccnc(NC(=O)CCC(=O)N(CC(=O)NCc2ccccc2)Cc2cccs2)c1,-49.2
11,NC(=O)CC1NC(=O)c2cc([N+](=O)[O-])cc(I)c2OCCC(C(N)=O)NC(=O)[C@@H]2CCCN2C1=O (stereo partly drawn),6.79
12,Cl.c1ccc(COc2cccc(CNCc3cccnc3)c2)cc1,-3.26
13,CC(=O)Nc1sc(NC(=O)c2ccco2)nc1-c1cccs1,-0.485
14,O=C(CNC(=O)c1ccccc1Cl)NC1CCN(Cc2ccccc2)CC1,13.1
15,CCCCC#Cc1cncc(C(=O)N/N=C/c2cccc(OC)c2)c1,-19.2
16,CCn1c(SCC(=O)OCC(=O)N2c3ccccc3NC(=O)C2(C)C)nnc1-c1ccco1,-5.88
17,CCOC(=O)c1cc(C)sc1NC(=O)C1CCC1,-11.3
18,Cc1ccc(C)c(Cn2nnc3c(=O)[nH]c(C4CCN(S(=O)(=O)c5ccc(S(=O)(=O)NC6CC6)cc5)CC4)nc32)c1,20.8
19,Cc1ccc(N2C(=O)c3ccccc3NC2(C(=O)O)c2ccccc2)cc1Cl (stereo not drawn),-10.4
20,COc1cccc(NC(=O)CN(C)C(=O)Cc2ccc3c(c2)CCC3)c1,-4.02
21,CCn1nc(NS(=O)(=O)c2ccc([N+](=O)[O-])cc2)c2cc3cccc(C)c3nc21,12.3
22,O=C(Cc1ccccc1)Nc1c[nH]c(=O)[nH]c1=O,1.05

row,Structure (SMILES),"hERG current change (%, negative = inhibition) at 10uM [%]"
1,O=C(OCc1ccccc1Cl)c1cc([N+](=O)[O-])ccc1N1CCOCC1,-23.1
2,CC(=O)Nc1nc(C(=O)O)cs1,14.5
3,CC(=O)Nc1ccc(SC[C@H](Cc2ccccc2)N2CC[C@@H](C)CCC2=O)cc1,-8.11
4,Nc1c(C(=O)NC2CC2)sc2nc3c(c(-c4ccco4)c12)CC/C3=C/c1ccco1,40.4
5,CCCC(=O)Nc1sc2c(c1C#N)CCCCC2,-50.6
6,N#Cc1cc([N+](=O)[O-])cnc1Nc1ccccc1,9.2
7,Cc1ccc2c(c1)N(CC(=O)NCCCN1CCCCC1)C(=O)CO2,-24.4
8,CCOC(=O)c1c(C)[nH]c(C(=O)CN(C)CC(=O)Nc2ccccc2C(F)(F)F)c1C,-3.72
9,CCOCC(=O)N1CCN(c2ccccc2OC)CC1,17.1
10,CC(=O)c1ccc(OCCCC(=O)Nc2cccc(S(=O)(=O)N(C)C)c2)cc1,-26
11,Cc1ccc(OCC(=O)Nc2ccc3c(c2)OC(F)(F)O3)c([N+](=O)[O-])n1,14.3
12,C[C@@H](O)Cc1cn(CC(=O)NCCCCCCCCCCC(=O)N2CCNCC2)nn1,-6.45
13,COc1ccc(S(=O)(=O)N2CCN(C(=O)c3ccc([N+](=O)[O-])o3)CC2)cc1,-51.3
14,Cn1cc([N+](=O)[O-])c(C(=O)Nc2nc(-c3ccc(Cl)cc3)cs2)n1,-0.217
15,CCOc1ccc(-n2c(O)c(/C=C3\C=Nc4ccccc43)c(=O)[nH]c2=O)cc1,11.8
16,Cc1noc(C)c1CSCC(=O)NCCN1C(=O)S/C(=C\c2ccccc2F)C1=O,-29.9
17,CCn1ncc(C2=NOC(C(=O)Nc3c(C)n(C)n(-c4ccccc4)c3=O)C2)c1C (stereo not drawn),23.7
18,CCOc1ccc(OCCC(=O)N(CC)CC(=O)Nc2c(F)cccc2F)cc1,-60.2
19,COc1cccc(/C=C/C(=O)OCC(=O)c2ccc(C)c(C)c2)c1OC,-8.03
20,Cc1[nH]c2c(ccc3cccnc32)c1C,-7.31
21,COc1ccc(/C=N\NC(=O)c2ccccc2Br)cc1COc1c(F)c(F)cc(F)c1F,-0.654
22,COc1ccc(CCC(=O)NCCCNC(=O)CCc2ccc(OC)cc2)cc1,-1.82

row,Structure (SMILES),"hERG current change (%, negative = inhibition) at 10uM [%]"
1,CC(OC(=O)c1ccc2ncsc2c1)C(=O)Nc1cccc(Cl)c1 (stereo not drawn),-1.01
2,Cc1cc(NC(=O)CSc2nnc(C3CC3)n2N)no1,2.68
3,CCOc1cc(/C=N/NC(=O)c2cccnc2)ccc1OCC(N)=O,17.3
4,CC(=O)N1CCC(=O)Nc2ccc([N+](=O)[O-])cc21,10.7
5,O=C(Nc1cccc(C(F)(F)F)c1)C1CCCN1S(=O)(=O)c1cccc2cccnc12 (stereo not drawn),-12.4
6,Cc1ccc(NC(=O)CSc2ncn[nH]2)cc1,16.1
7,C=C1C2(C(=O)NCc3ccco3)CCC(C2)C1(C)C (stereo not drawn),2.47
8,CCOC(=O)C1CCN(C(c2ccccn2)c2c(C)[nH]c3ccccc23)CC1 (stereo not drawn),-19.8
9,CSc1cccc(NC(=O)C2CC(=O)N(Cc3ccccc3)C2)c1 (stereo not drawn),-5.34
10,O=C(CCn1c(=O)oc2ccccc21)N1CCN(c2ccccc2Cl)CC1,-34.7
11,Cc1ccc(N2C(=O)N(CC(=O)Nc3ccc(C)c(C)c3)C(=O)C2C)cc1 (stereo not drawn),8
12,O=C(COC(=O)c1c[nH]c2ccccc12)Nc1ccc([N+](=O)[O-])cc1,-0.338
13,O=C(Cc1ccccc1)NCc1ccc(-n2cccc2)cc1,29.3
14,Cc1cc(C)c2nc(NC(=O)CN3C(=O)NC4(CCCC4)C3=O)sc2c1,17.1
15,Br.Cc1ccc(C(=O)C(c2ccccc2)N2Cc3ccccc3C2=N)cc1 (stereo not drawn),-60.3
16,NC(=O)CSc1nnc(Cn2cnc3ccccc32)o1,6.95
17,CSCC(=O)N1CCC(n2nccc2NC(=O)CCc2ccccc2)CC1,12.1
18,COc1ccccc1/C=N/NC(=O)CNC(=O)c1ccccc1,-13.9
19,CN1CCN(C(=S)c2ccc(-c3cccc([N+](=O)[O-])c3)o2)CC1,-35.1
20,Cc1ccc(CN2CCN(Cc3c(C)nn(C(C)C)c3C)CC2CCO)o1 (stereo not drawn),-7.24
21,CCOC(=O)c1[nH]cnc1C(=O)Nc1cccc(N)n1,5.62
